# Values joined by “and” are separate entries in the source; they are usually repeats but may differ in a detail not shown here. Identical values can stand only once. Among all 420,000 compounds or so, about 64,000 (15%) were called active. The inconclusive results got no clear call from the source; some entries with a clear call stand among them for comparison. Calls follow the shape of the dose curve; as a rule, active = well fitted inhibition curve with a large enough effect; inconclusive = small, poorly fitted or top-dose-only effect; inactive = flat fitted curve, though single readings scatter. A potency beside an inconclusive call is a rough fit, not a confirmed value.
# Assay: qHTS for Inhibitors of human tyrosyl-DNA phosphodiesterase 1 (TDP1): qHTS in cells in absence of CPT; also: nearly all actives have a fitted effect of over 55% in size
# Conditions: DT40 Tdp1-/- hTDP1 cells, no CPT, ATP luminescence, 48 h; activity change, negative = growth inhibition: at 46.2 µM (top of the series) unless noted
# Procedure, shortened: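 Seeded 400 DT40-hTDP1 cells/well (vehicle DMSO, no 20 nM CPT); pinned compounds; ≥48 hr at 37 °C; CellTiter-Glo luminescence as viability measure.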
# % is scaled to controls: 0 for no effect and ±100 for the full control effect; potency is read from the fitted curve at half-maximal effect; tags tell the direction and shape of the fitted curve.
Compound,Potency,"activity change, negative = growth inhibition"
COC(=O)[C@H]1C[C@@]2(O)CN(S(=O)(=O)c3ccc(C)cc3)C[C@@]2(OC(=O)NCc2ccccc2)C[C@H]1C(=O)OC,"inconclusive: 20.6 µM [inhibitor, single point]",–
COc1ccc(Cl)cc1C(=O)NNC(=O)CN1C(=O)C2CC=CCC2C1=O (centres undefined),–,inactive: 11.1%
CC1CCCCC1N=C1NC(C)(C)CS1 (centres undefined),–,inactive: -2.75%
CCCC(c1nnnn1Cc1ccccc1)N1CCN(c2ccccc2OC)CC1 (centres undefined),"inconclusive: 25.9 µM [inhibitor, partial curve]",–
O=C(NC1CCCCC1)c1cccc(NC(=O)c2ccccc2Cl)c1,"inconclusive: 23.1 µM [inhibitor, single point]",–
O=C(C[n+]1ccccc1Br)c1ccc(I)cc1,"inconclusive: 15.8 µM [inhibitor, single point]",–
CC(=O)C1CCC2C3CCC4CC(=O)CCC4(C)C3C(O)CC12C (centres undefined),"inconclusive: 25.9 µM [inhibitor, single point]",–
CC(C)(CO)Cc1cc(C(C)(C)C)c(O)c(C(C)(C)C)c1,"inconclusive: 13.3 µM [inhibitor, full curve] and inconclusive: 29.1 µM [inhibitor, single point]",–
COc1cc(/C=N/n2cnnc2)ccc1OC(=O)c1cccnc1,"inconclusive: 23.1 µM [inhibitor, single point]",–
CSc1ccccc1NC(=S)NC1CCCC1,–,inactive: 10%
Cc1cc(C)c(S(=O)(=O)N2CCCCC2C(=O)O)c(C)c1 (centres undefined),–,inactive: -16.8%
O=C(Cn1c2ncccc2c(=O)n1-c1ccccc1)NCc1ccccc1,"inconclusive: 18.4 µM [inhibitor, single point]",–
CC(C)(C)OC[C@H](NC(=O)c1[nH]cnc1C(=O)Nc1ccccc1F)C(=O)OC(C)(C)C,active: 20.6 µM,–
O=C(CS(=O)(=O)c1nc(-c2ccc(Cl)cc2)cn1-c1ccccc1)Nc1cccc(Cl)c1,"inconclusive: 29.1 µM [inhibitor, single point]",–
O=C(NCc1ccccc1Cl)c1cc(-c2ccccc2)n[nH]1,"inconclusive: 25.9 µM [inhibitor, single point]",–
COC(=O)c1ccc(Cn2c(C)c(C(=O)NCc3cccc([N+](=O)[O-])c3)sc2=O)o1,"inconclusive: 23.1 µM [inhibitor, single point]",–
CCCCc1nc(NCCN2CCOCC2)c(C#N)c2c1COC(C)(C)C2,"inconclusive: 14.6 µM [inhibitor, partial curve, poor fit]",–
O=C(Cn1nnc(-c2ccccc2Cl)n1)NCc1ccc2c(c1)OCO2,–,inactive: 5.14%
CCOC(=O)N(C)c1c(CC)nc2c(OCc3cc(Cl)cc(Cl)c3)cccn12,active: 20.6 µM,–
CCOC(=O)c1cc(CC)sc1NC(=O)CN1CCN(C(=O)c2ccco2)CC1,–,inactive: -22.2%
CCOc1ccc(-n2c(SCC(=O)Nc3ccc(Br)cc3)nc3n[nH]c(C)c3c2=N)cc1,active: 7.31 µM,–
COCCn1c(CCC(=O)Nc2ccc(OC)c(OC)c2)nc2cccnc21,–,inactive: -25.2%
CC(C)NCC(O)c1cc(O)cc(O)c1 (centres undefined),inactive,–
Cc1oc(-c2cccc(Br)c2)nc1CN1CCC(C(=O)NCc2ccccc2)CC1,"inconclusive: 16.4 µM [inhibitor, single point]",–
O=C(NCc1ccncc1)c1ccc(NS(=O)(=O)c2ccc(F)cc2)cc1,–,inactive: -19.4%

Compound,Potency,"activity change, negative = growth inhibition"
O=C(Nc1ccccc1)C1C(c2ccccc2)C1(Cl)Cl (centres undefined),"inconclusive: 2.06 µM [inhibitor, single point]",–
CC(C)Oc1cccc(C(=O)C2CCCN(Cc3ccc(Oc4ncccn4)cc3)C2)c1 (centres undefined),"inconclusive: 23.1 µM [inhibitor, single point]",–
CCOC(=O)C1(Cc2cccc(F)c2)CCN(C(=O)C2CCC2)CC1,"inconclusive: 18.4 µM [inhibitor, partial curve]",–
COc1ccc(C(=O)NCc2ccccc2)cc1S(=O)(=O)N1CCCc2ccccc21,"inconclusive: 20 µM [inhibitor, partial curve, poor fit]",–
Cc1ccc(S(=O)(=O)N2C[C@H]3n4c(=O)ccc(=O)n4C[C@H](OC(=O)NCc4ccccc4F)[C@@]3(O)C2)cc1,active: 20.6 µM,–
CC1CN(C(=S)SCCN2Cc3ccccc3C2=O)CC(C)O1 (centres undefined),–,inconclusive: -33.2% [inhibitor]
O=C(OCc1cn([C@@H]2C[C@H](c3ccc(Cl)cc3)N(Cc3cccs3)C[C@H]2O)nn1)c1ccccc1,–,inactive: -8.11%
CCn1ccnc1CN1CCc2c([nH]c3ccccc23)C1C1CCCCC1 (centres undefined),active: 25.9 µM,–
O=C(Nc1ccccc1)NC1CCN(Cc2ccccc2)CC1,–,inactive: -0.78%
CN(CC(=O)Nc1cccc(F)c1)C(=O)CN1C(=O)NC2(CCCCC2)C1=O,active: 20.6 µM,–
O=C(NCc1ccc(Cl)cc1)C(=O)NCC1OCCN1S(=O)(=O)c1ccc2c(c1)OCCO2 (centres undefined),–,inconclusive: -34.3% [inhibitor]
O=S(=O)(c1ccc(Cl)c(NC(=S)Nc2cccc(O)c2)c1)N1CCOCC1,–,inactive: -23.4%
CC(=O)Nc1ccc(NC(=O)CSc2nnc(NC(=O)c3cccc(F)c3)s2)cc1,–,inactive: -2.49%
COc1ccc(NCC(=O)Nc2ccc(C#N)cc2)cc1Cl,"inconclusive: 23.1 µM [inhibitor, partial curve]",–
COc1cccc(C2C(C(N)=O)=C(C)Nc3nc(CCCO)nn32)c1 (centres undefined),inactive,–
CCCn1nnc(NC(=S)NC(=O)Cc2ccccc2)n1,active: 23.1 µM,–
CC(=O)c1ccc2c3c(cccc13)C(=O)N(c1c(C)nn(C)c1C)C2=O,"inconclusive: 8.2 µM [inhibitor, partial curve]",–
O=C(CSc1nc(-c2ccccc2)cc(C(F)(F)F)n1)NCc1cccs1,–,inactive: -29.8%
COc1cccc(CNC(=O)Cc2c(C)c3cc4c(C)coc4cc3oc2=O)c1,"inconclusive: 29.1 µM [inhibitor, single point]",–
O=C(c1ccco1)N1CCN(C(=S)Nc2ccccc2C(F)(F)F)CC1,–,inactive: -4.29%
CN1CCN(C(=O)c2ccc(COc3cc(Cl)ccc3Cl)o2)CC1,"inconclusive: 0.0326 µM [inhibitor, full curve]",–
CCOC(=O)c1c(NCc2ccccc2)n[nH]c1C,–,inactive: -1.64%
CC(C)CN(C(=O)COC(=O)/C=C/c1ccc(Cl)c(Cl)c1)c1c(N)n(Cc2ccccc2)c(=O)[nH]c1=O,"inconclusive: 25.9 µM [inhibitor, single point]",–
COc1ccc(C(=O)NC(=O)COC(=O)C2COc3ccccc3O2)cc1 (centres undefined),–,inactive: -24.5%
COc1ccc(S(=O)(=O)NC(=O)C2(C)CCN2C(=O)Cc2ccc(C(C)(C)C)cc2)cc1 (centres undefined),–,inactive: -13.4%

Compound,Potency,"activity change, negative = growth inhibition"
CC1=C(C(=O)OCCCBr)C(c2ccc3c(c2)OCO3)NC(=O)N1 (centres undefined),active: 23.1 µM,–
COc1ccc(N2Cc3cccc(C(=O)N4CCN(C(=O)c5ccco5)CC4)c3C2=O)cc1,–,inactive: -26%
CCc1ccc(NC(=O)N2CCN(c3nnc(C)c4c(C)n(-c5ccc(Cl)cc5)nc34)CC2)cc1,active: 23.1 µM,–
CCCCn1c(N)c(N(CCC(C)C)C(=O)c2ccc(-c3ccc([N+](=O)[O-])cc3)o2)c(=O)[nH]c1=O,"inconclusive: 25.9 µM [inhibitor, single point]",–
Cn1c(NCCN2CCCC2)nc2cc(-c3cccc(C(F)(F)F)c3)sc2c1=O,"inconclusive: 23.1 µM [inhibitor, single point]",–
COc1ccccc1CNC(=O)CCS(=O)(=O)Cc1ccc(C)cc1,–,inconclusive: -32.9% [inhibitor]
O=C(N/N=C/c1ccc(Sc2nc3ccccc3[nH]2)o1)c1ccncc1,"inconclusive: 23.1 µM [inhibitor, single point]",–
CCOc1c(Cl)cc(C(=O)NCCN2CCCCC2)cc1Cl,–,inactive: -28.4%
Cc1nnc(SCC(=O)N(C)C2CCCCC2)s1,–,inactive: -0.932%
CC(C)Cn1nc(NC(=O)C(C)(C)C)c2cc3ccccc3nc21,"inconclusive: 23.1 µM [inhibitor, single point]",–
COc1cccc(NC(=O)c2csc3c2CCCCC3)c1,active: 16.4 µM,–
COc1ccc(N2C(=O)c3cccc4c(N(C)CCO)ccc(c34)C2=O)cc1,"inconclusive: 29.1 µM [inhibitor, single point]",–
Cc1ccc(NC(=O)C2=C(c3ccccc3)S(=O)(=O)CCS2(=O)=O)cc1,active: 0.58 µM,–
Oc1ccccc1/C=N/n1cnnc1,–,inactive: 0.25%
COCCn1c(SCC(=O)N2CCCC2)nnc1-c1ccco1,–,inactive: 2.66%
Cc1cccc(NC(=O)NCc2ccccn2)c1,–,inactive: -2.54%
N#Cc1c(N)n(CCNC(=O)c2cccs2)c2nc3ccccc3nc12,"inconclusive: 3.26 µM [inhibitor, full curve, poor fit]",–
O=C(c1[nH]c(C(F)(F)F)nc1-c1ccccc1)N1CCN(c2ncc(C(F)(F)F)cc2Cl)CC1,"inconclusive: 23.1 µM [inhibitor, single point]",–
O=C(CSc1nnc(-c2ccncc2)n1C1CC1)c1cccs1,"inconclusive: 29.1 µM [inhibitor, single point]",–
CCCCCCCCCCCCCCCCCCCCCC(=O)Nc1ccn([C@@H]2O[C@H](CO)[C@@H](O)[C@@H]2O)c(=O)n1,active: 3.35 µM,–
Cc1onc(-c2ccccc2)c1C(=O)N1CCN(c2ncccc2C(F)(F)F)CC1,"inconclusive: 29.1 µM [inhibitor, single point]",–
CN1C(=O)/C(=C\c2ccccc2F)Sc2ccc(C(=O)NC3CCN(Cc4ccccc4)CC3)cc21,active: 23.1 µM,–
c1ccc(OCCCCn2cnc3ccccc32)cc1,active: 18.4 µM,–
Cc1cc(NC(=O)CCC(=O)N(CC(=O)NC2CCCC2)c2cccc(C)c2C)no1,–,inactive: -23.2%

# Source: PubChem BioAssay AID686978 (National Center for Advancing Translational Sciences (NCATS), 2013)
